The other results are listed elsewhere or left out.
Assays:
HSkMC = human skeletal muscle cells; test: cytotoxicity call (relative viability < 0.9); details: 10 µM
HepG2 = test: cytotoxicity call (relative viability < 0.9); details: 10 µM
S. aureus RN4220 = test: growth inhibition call (relative growth <= 0.2); details: 50 µM

SMILES | cytotoxicity call (HSkMC) | cytotoxicity call (HepG2) | growth inhibition call (S. aureus RN4220)
CN(C)CCc1c[nH]c2ccc(CC3COC(=O)N3)cc12 (stereo unspecified) | inactive | inactive | inactive
C[C@@H]1CN([C@H](C)CO)C(=O)c2cccc(NS(=O)(=O)c3ccccc3)c2O[C@@H]1CN(C)CC1CC1 | inactive | inactive | inactive
C[C@@H]1CCCCO[C@@H](CN(C)C(=O)Nc2ccccc2)[C@H](C)CN([C@@H](C)CO)C(=O)c2cc(NC(=O)Nc3ccccc3)ccc2O1 | inactive | inactive | inactive
Cc1cccc(S(=O)(=O)N2C[C@@H](O)COC[C@@H]3O[C@H](CC(=O)N4CCN(C)CC4)CC[C@H]32)c1 | inactive | inactive | inactive
COc1ccc(S(=O)(=O)N(C)C[C@H]2Oc3ccc(NC(=O)Cn4cnnn4)cc3CC(=O)N([C@H](C)CO)C[C@H]2C)cc1 | inactive | inactive | inactive
COc1ccc(S(=O)(=O)Nc2ccc3c(c2)C(=O)N([C@H](C)CO)C[C@H](C)[C@H](CN(C)S(=O)(=O)c2cn(C)cn2)O3)cc1 | inactive | inactive | inactive
C[C@@H]1CCCCO[C@@H](CN(C)S(=O)(=O)c2cn(C)cn2)[C@@H](C)CN([C@H](C)CO)C(=O)c2cc(NS(=O)(=O)c3cccs3)ccc2O1 | inactive | inactive | inactive
CC(C)NC(=O)Nc1ccc2c(c1)C(=O)N(C)[C@@H]1CC[C@H](CC(=O)NCc3ccc(F)cc3)O[C@H]1CO2 | inactive | inactive | inactive
CCNC(=O)N1CCCC[C@@H]1CO | inactive | inactive | inactive
C[C@H]1CN([C@@H](C)CO)C(=O)c2cc(NC(=O)CCCN(C)C)ccc2O[C@@H]1CN(C)C(=O)NC1CCCCC1 | inactive | inactive | inactive
O=C(O)c1cc(-n2cnnn2)ccc1O | inactive | inactive | inactive
CC(C)(C)OC(=O)N[C@H]1CCC(=O)NC1=O | inactive | inactive | inactive
CC(C)CC#Cc1ccc2c(c1)O[C@H](CN(C)C(=O)C1CCOCC1)[C@@H](C)CN([C@H](C)CO)S2(=O)=O | inactive | inactive | inactive
CC(=O)OCC(CCn1cnc2cnc(N)nc21)COC(C)=O | inactive | inactive | inactive
C=CC(=O)NCCCCNC(=O)C=C | inactive | inactive | inactive
O=c1ccc2ccc(O)cc2o1 | inactive | inactive | inactive
O=C(C[C@H]1CC[C@@H]2[C@H](COC[C@@H](O)CN2S(=O)(=O)c2ccccc2)O1)NCc1ccc(-c2ccccc2)cc1 | inactive | inactive | inactive
C[C@H]1CN([C@@H](C)CO)C(=O)c2cc(C#CC3(O)CCCC3)cnc2O[C@@H]1CN(C)C(=O)Cc1cccnc1 | inactive | inactive | inactive
C[C@H]1CN([C@@H](C)CO)C(=O)c2cc(N(C)C)ccc2O[C@@H]1CN(C)S(C)(=O)=O | inactive | inactive | inactive

SMILES | cytotoxicity call (HSkMC) | cytotoxicity call (HepG2) | growth inhibition call (S. aureus RN4220)
C[C@@H]1CN([C@@H](C)CO)C(=O)c2cc(NC(=O)Nc3ccc4c(c3)OCO4)ccc2O[C@@H]1CN(C)S(C)(=O)=O | inactive | inactive | inactive
CO[C@@H]1CN(C)C(=O)c2ccc(NS(C)(=O)=O)cc2OC[C@H](C)N(C(=O)C2CCCCC2)C[C@H]1C | inactive | inactive | inactive
COc1ccc(NC(=O)Nc2ccc3c(c2)C(=O)N([C@@H](C)CO)C[C@@H](C)[C@H](CN(C)C(=O)Cc2ccccc2)OCCCC[C@H](C)O3)cc1 | inactive | inactive | inactive
COc1ccc(S(=O)(=O)N(C)C[C@H]2OCCCC[C@H](C)Oc3ccc(NC(=O)Nc4cccc5ccccc45)cc3C(=O)N([C@@H](C)CO)C[C@H]2C)cc1 | inactive | inactive | inactive
COc1ccc(S(=O)(=O)Nc2ccc3c(c2)C(=O)N([C@H](C)CO)C[C@H](C)[C@H](CN(C)C(=O)Nc2c(C)noc2C)O3)cc1 | inactive | inactive | inactive
COc1ccc(C#Cc2ccc3c(c2)O[C@H](CN(C)C(C)=O)[C@@H](C)CN([C@H](C)CO)S3(=O)=O)cc1 | inactive | inactive | inactive
C[C@@H]1CN([C@@H](C)CO)C(=O)c2c(c3ccccc3n2C)-c2ccccc2CO[C@H]1CN(C)Cc1cccc(C(=O)Nc2ccccc2N)c1 | inactive | inactive | inactive
Brc1c(NC2=NCCN2)ccc2nccnc12 | inactive | inactive | inactive
Cc1csc2sc(/C=N/Cc3cccs3)c(C)c12 | inactive | active | inactive
CNC[C@@H]1OCCCC[C@H](C)Oc2ccc(NC(=O)Nc3cccc4ccccc34)cc2C(=O)N([C@@H](C)CO)C[C@@H]1C | inactive | inactive | inactive
CCCCCCC#C[Si](O[C@H](c1ccccc1)c1cn([C@H](CO)Cc2ccccc2)nn1)(C(C)C)C(C)C | inactive | inactive | inactive
C[C@]12CC[C@@H]3c4ccc(O)cc4C[C@@H](CCCCCCCCC[S@@](=O)CCCC(F)(F)C(F)(F)F)[C@H]3[C@@H]1CC[C@@H]2O | inactive | inactive | inactive
O=C(Nc1ccccc1)N1c2ccccc2CCc2ccccc21 | inactive | inactive | inactive
COCCCNC(=O)[C@@]1(C)c2ccccc2C(=O)N(Cc2cc(F)cc(C(F)(F)F)c2)[C@H]1c1ccc(CO)cc1 | inactive | inactive | inactive
C[C@H](CO)N1C[C@H](C)[C@@H](CN(C)Cc2ccc(Cl)c(Cl)c2)OCCCC[C@H](C)Oc2ccc(NS(=O)(=O)c3ccc(F)cc3)cc2C1=O | inactive | inactive | inactive
C[C@@H]1CCCCO[C@H](CN(C)Cc2ccc(C(F)(F)F)cc2)[C@H](C)CN([C@@H](C)CO)C(=O)c2cc(NS(=O)(=O)c3cn(C)cn3)ccc2O1 | inactive | inactive | inactive
C[C@@H]1CN([C@@H](C)CO)C(=O)c2cccc(NS(=O)(=O)c3cn(C)cn3)c2O[C@@H]1CN(C)C(=O)Nc1ccccc1 | inactive | inactive | inactive
COc1cccc2c1C(=O)c1c(O)c3c(c(O)c1C2=O)C[C@](O)(C(=O)CO)C[C@H]3O[C@H]1C[C@@H](N)[C@@H](O)[C@@H](C)O1 | active | active | active
C[C@@H]1CCCCO[C@H](CN(C)C(=O)Nc2ccc(F)cc2)[C@@H](C)CN([C@H](C)CO)C(=O)c2cc(NC(=O)c3ccccc3)ccc2O1 | inactive | inactive | inactive

SMILES | cytotoxicity call (HSkMC) | cytotoxicity call (HepG2) | growth inhibition call (S. aureus RN4220)
Cc1noc(C)c1NC(=O)Nc1ccc2c(c1)C(=O)N([C@H](C)CO)C[C@@H](C)[C@H](CN(C)S(=O)(=O)c1cn(C)cn1)O2 | inactive | inactive | inactive
Cc1[nH]c2ncnn2c(=O)c1NS(C)(=O)=O | inactive | inactive | inactive
C[C@H]1CN([C@@H](C)CO)C(=O)c2cccc(NC(=O)c3ccncc3)c2O[C@@H]1CN(C)C(=O)Nc1ccc2c(c1)OCO2 | inactive | inactive | inactive
C[C@H]1CN([C@@H](C)CO)C(=O)c2cccc(NC(=O)c3ccc(-c4nccs4)cc3)c2O[C@H]1CN(C)C(=O)Nc1ccc2c(c1)OCO2 | inactive | inactive | inactive
Cc1ccc(S(=O)(=O)Nc2ccc3c(c2)C(=O)N([C@H](C)CO)C[C@H](C)[C@H](CN(C)Cc2ccc(C(=O)Nc4ccccc4N)cc2)OCCCC[C@@H](C)O3)cc1 | inactive | inactive | inactive
C[C@@H]1CN([C@@H](C)CO)C(=O)c2cccc(NS(=O)(=O)c3cn(C)cn3)c2O[C@@H]1CN(C)Cc1ccc(C(=O)O)cc1 | inactive | inactive | inactive
CC(C)(C)[S@](=O)N1Cc2cc(C(=O)N[C@@H]3CCN(Cc4ccccc4)C3)nc(-c3cccc(-c4cccnc4)c3)c2[C@@H]1CCO | inactive | inactive | inactive
Cc1ccc(S(=O)(=O)N(C)C[C@@H]2Oc3ccc(NC(=O)NC(C)C)cc3CC(=O)N([C@@H](C)CO)C[C@@H]2C)cc1 | inactive | inactive | inactive
COc1ccc(NC(=O)Nc2ccc3c(c2)C(=O)N([C@H](C)CO)C[C@H](C)[C@@H](CN(C)Cc2ccc(C(F)(F)F)cc2)OCCCC[C@@H](C)O3)cc1 | inactive | inactive | inactive
C[C@H](CO)N1C[C@H](C)[C@@H](CN(C)C(=O)Nc2cccc(C(F)(F)F)c2)OCc2ccccc2-c2c(n(C)c3ccccc23)C1=O | inactive | inactive | inactive
CC(=O)OCC[N+](C)(C)C | inactive | inactive | inactive
C[C@H]1CN([C@@H](C)CO)S(=O)(=O)c2ccc(C#Cc3ccccc3F)cc2O[C@H]1CN(C)C(=O)Cc1ccncc1 | inactive | inactive | inactive
O=C(C[C@@H]1CC[C@@H]2[C@H](COC[C@@H](O)CN2C(=O)Nc2cccc(Cl)c2)O1)NCCCN1CCOCC1 | inactive | inactive | active
C#CC1(OC(C)=O)CCC2C3CCC4=CC(=NO)CCC4C3CCC21CC (stereo unspecified) | inactive | active | inactive
COc1ccc(CN(C)C[C@H]2Oc3ccc(NS(C)(=O)=O)cc3C(=O)N([C@@H](C)CO)C[C@H]2C)cc1 | inactive | inactive | inactive
C[C@@H]1CCCCO[C@@H](CN(C)C(=O)Nc2ccccc2)[C@@H](C)CN([C@H](C)CO)C(=O)c2cc(NS(=O)(=O)c3ccccc3)ccc2O1 | inactive | inactive | inactive
C[C@H]1CN([C@@H](C)CO)C(=O)Cc2cc(NC(=O)Nc3ccccc3)ccc2O[C@H]1CN(C)Cc1ccc(C(=O)Nc2ccccc2N)cc1 | inactive | inactive | inactive
COc1ccc(CN(C)C[C@H]2Oc3ccc(NC(=O)CCN4CCOCC4)cc3C(=O)N([C@@H](C)CO)C[C@@H]2C)cc1 | inactive | inactive | inactive
C[C@@H]1CN([C@@H](C)CO)C(=O)Cc2cc(NS(=O)(=O)c3ccc(Cl)cc3)ccc2O[C@@H]1CN(C)Cc1ccc(C(=O)Nc2ccccc2N)cc1 | inactive | inactive | inactive
